Measured values published in PubChem BioAssay AID488969 (Vanderbilt High Throughput Screening Facility, 2010).
Over roughly 110,000 compounds, “z-score” has its median near -0.1; the highest 2% begin near 2. The list shows a part of the results.

target: Metabotropic glutamate receptor 8 (Rattus norvegicus) (UniProt P70579); test: mGluR8 Gi/Go-coupled signaling modulation – cell-based, rat, thallium flux, HTS, primary screen (AID 488969); conditions: HEK293 rat mGluR8, GIRK (G protein-gated inwardly rectifying potassium channel) thallium flux, FluoZin2; at 10 µM; stronger effect = higher value; submaximal glutamate (EC20) added with thallium
Chain of UniProt P70579 (P70579 whole entry, looked up): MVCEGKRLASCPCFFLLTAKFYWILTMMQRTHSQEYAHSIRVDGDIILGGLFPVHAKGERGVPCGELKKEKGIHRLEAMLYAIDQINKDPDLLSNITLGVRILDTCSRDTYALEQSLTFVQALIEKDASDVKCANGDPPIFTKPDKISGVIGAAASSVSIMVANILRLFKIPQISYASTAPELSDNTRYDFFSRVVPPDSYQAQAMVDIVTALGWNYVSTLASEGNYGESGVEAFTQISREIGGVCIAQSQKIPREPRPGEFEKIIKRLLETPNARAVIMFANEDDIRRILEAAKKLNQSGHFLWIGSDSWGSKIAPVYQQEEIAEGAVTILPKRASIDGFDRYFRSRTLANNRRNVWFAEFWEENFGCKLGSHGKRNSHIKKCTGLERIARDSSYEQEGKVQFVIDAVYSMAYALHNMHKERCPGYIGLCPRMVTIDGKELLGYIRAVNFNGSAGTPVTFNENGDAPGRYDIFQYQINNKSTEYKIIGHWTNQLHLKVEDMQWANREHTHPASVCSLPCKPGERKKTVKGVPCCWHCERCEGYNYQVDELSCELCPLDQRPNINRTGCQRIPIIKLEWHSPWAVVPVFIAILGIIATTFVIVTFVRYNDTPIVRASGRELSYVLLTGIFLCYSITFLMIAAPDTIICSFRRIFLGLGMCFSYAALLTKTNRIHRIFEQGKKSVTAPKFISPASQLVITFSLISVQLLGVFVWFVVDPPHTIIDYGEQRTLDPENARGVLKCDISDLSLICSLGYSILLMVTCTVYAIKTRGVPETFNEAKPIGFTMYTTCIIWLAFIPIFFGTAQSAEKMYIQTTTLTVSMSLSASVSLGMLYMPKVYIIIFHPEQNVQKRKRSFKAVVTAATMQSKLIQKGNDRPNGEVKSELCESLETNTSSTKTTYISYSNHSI

SMILES	z-score
COC(=O)CSc1nnc(-c2ccc(S(=O)(=O)NCc3ccccc3Cl)cc2)o1	-0.123
Cn1c(=O)[nH]c(=O)c2c1nc(N1CCN(Cc3ccccc3)CC1)n2CCSc1ncccn1	0.135
c1cc2ccc3ccc(CN4CCOCC4)c4ccc(c1)c2c34	0.117
Cc1ccc(Cn2ccc(NC(=O)c3cc(C(C)C)on3)n2)cc1	-0.206
Clc1ccc(CNc2nnnn2-c2ccccc2)c(Cl)c1	-0.0354
COc1ccc(OCCCC(=O)Nc2cccc([N+](=O)[O-])c2C)cc1	1.52
O=C(CSc1nc(-c2ccncc2)nn1CC(=O)N1CCCCC1)NC1CCCC1	0.489
N/C(=N\OC(=O)c1ccc(F)cc1)c1nonc1N	0.0542
COc1ccc(-n2cnnc2SCC(=O)NC2CCCc3ccccc32)cc1 (stereo unspecified)	-0.364
Cc1cc(C)nc(NN2C(=O)/C(=C/c3ccc(O)cc3)SC2=S)n1	-0.387
Cc1cccc2cc(COC(=O)c3ccccn3)c(=O)[nH]c12	-0.024
COc1ccc(-c2csc(=Nc3c(C)n(C)n(-c4ccccc4)c3=O)n2C(C)(C)C)cc1	0.0597
CCOc1ccc(N=Cc2c(O)c3ccccc3oc2=O)cc1	0.0869
CC(=O)c1cccc(NS(=O)(=O)c2c(C)noc2C)c1	0.0121
Cc1cc(NC(=O)CSc2nc(-c3ccccc3)c(C#N)c(=O)[nH]2)no1	-0.79
Cn1c(NC(=O)c2cccc(Cn3cc(Cl)cn3)c2)nc2ccccc21	-0.464

SMILES	z-score
COc1ccc(C(=O)C2CCCCC2=O)cc1 (stereo unspecified)	0.0727
Cc1cc(N)n2ncc(-c3cccc(Br)c3)c2n1	0.0531
CCCOc1ccc(S(=O)(=O)NCCN2CCOCC2)c2ccccc12	-0.108
COc1ccc(C)cc1NC(=O)CN1C(=O)c2cccc3cccc1c23	-0.0263
CCOc1ccc(S(=O)(=O)Nc2cc(OC)ccc2OC)cc1	-0.0111
COc1cc(OC)cc(C(=O)NN2CCCCC2)c1	-0.128
O=C(CN1CCN(c2cccc(Cl)c2)CC1)Nc1ccc([N+](=O)[O-])cc1C(=O)Nc1ccccc1F	-0.0569
Cc1ccc(N=C2CCCCCN2C)c(C#N)c1	0.507
COC(=O)c1[nH]c2ccc(Cl)cc2c1NC(=O)Oc1ccccc1	-0.211
Cc1cc(C)c2c(n1)sc1c(O)cc(=O)[nH]c12	-1.2
CCc1ccc(OCC(=O)N/N=C/c2cc([N+](=O)[O-])ccc2N2CCOCC2)cc1	0.198
CC(C)c1ccccc1NC(=O)COc1ccc2c(=O)c(Oc3ccc4ccccc4c3)coc2c1	-0.285
CCCCCNC(=O)CCn1c(=O)oc2ccccc21	-0.371
O=C(Nc1cccc2c1CCCC2)c1ccco1	0.256
CC(C)(CNC(=O)C1CCCC1)CNC(=O)C1CCCC1	1.5
